# Results from PubChem BioAssay (Tox21).
# Several values for one entry are separate records, joined by “and”; a condition that tells them apart may be missing. Equal values may be shown once. Inconclusive results, whose numbers are uncertain, are shown with a selection of clear calls. For some of these results: Potencies of inconclusive entries are doubtful fits and often do not repeat. Activity calls are given as the source filed them. Unless noted, calls follow the shape of the dose curve; as a rule, active = well fitted curve in the direction sought with a large enough effect in the repeat runs; inconclusive = weak or mixed curves; inactive = no such curve, though single readings can be large; an effect the other way counts as inactive or inconclusive.
# Assays:
# [1] = biological target: Vitamin D3 receptor (Homo sapiens) (UniProt P11473); test: qHTS assay to identify small molecule agonists of the vitamin D receptor (VDR) signaling pathway (AID 743222; calls by dose curve; also: potency is read from the fitted curve at half-maximal effect; as to activation: % is scaled to controls: 0 for no effect and ±100 for the full control effect); conditions: HEK293T VDR-UAS-bla, beta-lactamase FRET ratio, 16 h; activation: at 63.5 µM (top of the series) unless noted
# Chain of UniProt P11473 (P11473 whole entry, looked up): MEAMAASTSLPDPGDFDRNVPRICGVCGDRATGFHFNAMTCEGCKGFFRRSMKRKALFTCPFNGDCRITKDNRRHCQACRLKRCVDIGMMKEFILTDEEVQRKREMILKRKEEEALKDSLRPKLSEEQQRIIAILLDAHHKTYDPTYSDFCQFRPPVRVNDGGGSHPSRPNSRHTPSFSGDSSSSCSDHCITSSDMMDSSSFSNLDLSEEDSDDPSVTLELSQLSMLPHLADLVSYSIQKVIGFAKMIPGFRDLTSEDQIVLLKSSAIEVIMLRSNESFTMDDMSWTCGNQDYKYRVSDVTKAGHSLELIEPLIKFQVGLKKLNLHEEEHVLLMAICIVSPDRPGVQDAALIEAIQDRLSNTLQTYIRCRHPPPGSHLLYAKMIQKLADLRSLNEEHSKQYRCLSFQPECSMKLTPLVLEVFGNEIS
# Summary of the method: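 Agonist activity measured in VDR-bla reporter cells. Exposure 16 h, 37C, 5% CO2; detection by B/G FRET substrate, 2 h RT.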
# [2] = biological target: Vitamin D3 receptor (Homo sapiens) (UniProt P11473); test: qHTS assay to identify small molecule antagonists of the vitamin D receptor (VDR) signaling pathway (AID 743223; active = well fitted inhibition curve with a large enough effect in the signal ratio in the repeat runs, not every such curve was filed as active; inconclusive = weak or mixed curves, or effect the other way; inactive = no such curve, though single readings can be large or run the other way; the % refers to the signal ratio; also: % is scaled to controls: 0 for no effect and ±100 for the full control effect); conditions: VDR-UAS-bla HEK293T, beta-lactamase FRET ratio, 16 h
# Summary of the method: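 Beta-lactamase activity in VDR-bla cells is measured by FRET substrate fluorescence (2 h, room temperature) after cells spend 16 h at 37C with test compound and 3 nM final 1alpha,25-dihydroxyvitamin D3.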
# [3] = qHTS assay for small molecule agonists of the antioxidant response element (ARE) signaling pathway (AID 743202; active = well fitted activation curve with a large enough effect in the signal ratio in the repeat runs, not every such curve was filed as active; inconclusive = weak or mixed curves, or effect the other way; inactive = no such curve, though single readings can be large or run the other way; the % refers to the signal ratio; also: potency is read from the fitted curve at half-maximal effect; as to activation: % is scaled to controls: 0 for no effect and ±100 for the full control effect); conditions: HepG2 ARE-bla reporter, beta-lactamase FRET, 16 h
# Summary of the method: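 ARE-bla HepG2 cells (beta-lactamase reporter under the antioxidant response element), plated 5 hours, then exposed to compounds 16 hours at 37 C. LiveBLAzer B/G FRET substrate added for 2 hours at room temperature; fluorescence intensity read.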
# [4] = qHTS assay to identify small molecule antagonists of the peroxisome proliferator-activated receptor delta (PPARd) signaling pathway - cell viability counter screen (AID 743213); conditions: PPARd-bla HEK293H viability, CellTiter-Glo luminescence, 17 h; viability change, negative = cytotoxic: at 62 µM (top of the series) unless noted; also: potency is read from the fitted curve at half-maximal effect; nearly all actives have a fitted effect of over 50% in size
# Summary of the method: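 PPARd-bla HEK293H cells (3000/well) got compound plus 300 nM L165041 agonist for 17 h at 37 C. Viability in the same wells came from CellTiter-Glo luminescence after 30 min at room temperature.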
# [5] = biological target: Peroxisome proliferator-activated receptor delta (Homo sapiens) (UniProt Q03181); test: qHTS assay to identify small molecule antagonists of the peroxisome proliferator-activated receptor delta (PPARd) signaling pathway (AID 743215; active = well fitted inhibition curve with a large enough effect in the signal ratio in the repeat runs, not every such curve was filed as active; inconclusive = weak or mixed curves, or effect the other way; inactive = no such curve, though single readings can be large or run the other way; the % refers to the signal ratio;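 also: cells stimulated with agonist L165041 at 300 nM final during compound exposure; % is scaled to controls: 0 for no effect and ±100 for the full control effect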); conditions: HEK293H PPARd-UAS-bla, beta-lactamase FRET ratio, antagonist, 17 h; ratio activity, negative = inhibition: at 62 µM (top of the series) unless noted
# Chain of UniProt Q03181 (Q03181 whole entry, looked up): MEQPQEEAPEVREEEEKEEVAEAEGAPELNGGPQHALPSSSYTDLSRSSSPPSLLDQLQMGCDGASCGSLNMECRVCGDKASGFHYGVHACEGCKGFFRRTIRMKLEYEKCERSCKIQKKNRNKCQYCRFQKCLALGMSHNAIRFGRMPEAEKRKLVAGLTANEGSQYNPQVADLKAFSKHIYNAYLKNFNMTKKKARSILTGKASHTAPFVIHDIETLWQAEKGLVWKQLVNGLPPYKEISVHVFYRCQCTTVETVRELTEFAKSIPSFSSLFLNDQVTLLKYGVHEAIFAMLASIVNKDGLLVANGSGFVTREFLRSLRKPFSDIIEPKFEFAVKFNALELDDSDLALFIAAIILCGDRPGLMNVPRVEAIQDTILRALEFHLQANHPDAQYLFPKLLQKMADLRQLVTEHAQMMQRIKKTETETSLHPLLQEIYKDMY
# Summary of the method: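 Antagonist-mode beta-lactamase reporter screen: HEK293H cells with UAS-bla under PPARd control, stimulated by 300 nM L165041 (final) alongside test compound for 17 h at 37 C, then FRET fluorescence after 2 h substrate incubation.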
# [6] = qHTS assay to identify small molecule antagonists of the vitamin D receptor (VDR) signaling pathway - cell viability counter screen (AID 743225); conditions: VDR-bla HEK293T viability, CellTiter-Glo luminescence, 16 h; viability change, negative = cytotoxic: at 61 µM (top of the series) unless noted; also: % is scaled to controls: 0 for no effect and ±100 for the full control effect; nearly all actives have a fitted effect of over 50% in size
# Summary of the method: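 In this counter screen, VDR-bla HEK 293T cells receive test compound plus 3 nM final calcitriol for 16 h at 37C. Room-temperature steps of 2 h with the beta-lactamase substrate, then 30 min with CellTiter-Glo, precede the luminescence read.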
# [7] = qHTS assay to identify small molecule agonists of the endoplasmic reticulum stress response signaling pathway (AID 1159516; active = well fitted activation curve with a large enough effect in the signal ratio in the repeat runs, not every such curve was filed as active; inconclusive = weak or mixed curves, or effect the other way; the % refers to the signal ratio; also: potency is read from the fitted curve at half-maximal effect); conditions: ESRE-bla HeLa, ER stress beta-lactamase reporter, 5 h; activation: at 61 µM (top of the series) unless noted
# Summary of the method: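 ER stress element reporter (bla) in HeLa. 1,500 cells/well, overnight attachment; 5 hr compound; 2 hr RT substrate; dual-emission fluorescence.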
# [8] = qHTS assay for small molecule activators of the heat shock response signaling pathway (AID 743210; active = well fitted activation curve with a large enough effect in the signal ratio in the repeat runs, with a control signal flat, not every such curve was filed as active; inconclusive = weak or mixed curves; the % refers to the signal ratio; also: potency is read from the fitted curve at half-maximal effect); conditions: HeLa HSE-bla reporter, beta-lactamase ratio, 5 h; activation: at 62.6 µM (top of the series)
# Summary of the method: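 HSE-bla HeLa cells (beta-lactamase reporter under heat shock response elements), plated overnight, then exposed to compounds 5 h at 37 C; LiveBLAzer B/G FRET substrate added, 2.5 h at room temperature, fluorescence intensity read.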
# [9] = biological target: Peroxisome proliferator-activated receptor delta (Homo sapiens) (UniProt Q03181); test: qHTS assay to identify small molecule agonists of the peroxisome proliferator-activated receptor delta (PPARd) signaling pathway (AID 743212; calls by dose curve; also: potency is read from the fitted curve at half-maximal effect); conditions: HEK293H PPARd-UAS-bla, beta-lactamase FRET ratio, 17 h; activation: at 62.6 µM (top of the series) unless noted
# Summary of the method: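 GeneBLAzer UAS-bla HEK293H cells carrying a PPARδ construct were exposed to compounds at 37 °C. Beta-lactamase activity was read by FRET fluorescence after 2 h at room temperature with LiveBLAzer B/G substrate.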
# [10] = biological target: Bile acid receptor (Homo sapiens) (UniProt Q96RI1); test: qHTS assay to identify small molecule antagonists of the farnesoid-X-receptor (FXR) signaling pathway (AID 743217; active = well fitted inhibition curve with a large enough effect in the signal ratio in the repeat runs, not every such curve was filed as active; inconclusive = weak or mixed curves, or effect the other way; inactive = no such curve, though single readings can be large or run the other way; the % refers to the signal ratio; also: potency is read from the fitted curve at half-maximal effect); conditions: HEK293T FXR-UAS-bla, beta-lactamase ratio, CDCA-stimulated, 16 h; activity change, negative = inhibition: at 62.6 µM (top of the series) unless noted
# Chain of UniProt Q96RI1 (Q96RI1 whole entry, looked up): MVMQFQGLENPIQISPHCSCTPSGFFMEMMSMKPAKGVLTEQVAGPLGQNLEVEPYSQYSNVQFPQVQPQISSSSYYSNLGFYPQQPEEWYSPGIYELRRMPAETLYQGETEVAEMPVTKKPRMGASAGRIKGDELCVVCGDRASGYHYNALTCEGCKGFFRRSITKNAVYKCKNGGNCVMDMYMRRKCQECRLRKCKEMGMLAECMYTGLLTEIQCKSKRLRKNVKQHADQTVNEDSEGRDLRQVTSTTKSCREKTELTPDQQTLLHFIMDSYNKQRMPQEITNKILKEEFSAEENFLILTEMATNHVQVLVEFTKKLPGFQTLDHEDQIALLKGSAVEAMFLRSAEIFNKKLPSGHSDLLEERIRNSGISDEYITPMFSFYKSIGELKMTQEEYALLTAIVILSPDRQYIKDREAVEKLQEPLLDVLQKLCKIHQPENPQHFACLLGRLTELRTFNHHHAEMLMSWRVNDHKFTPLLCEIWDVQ
# Summary of the method: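 Beta-lactamase reporter under UAS control in HEK 293T cells; compound exposure 16 h at 37 °C in the presence of chenodeoxycholic acid (50 uM final); signal from B/G FRET substrate after 2 h at room temperature.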
# [11] = qHTS assay to identify small molecule agonists of the farnesoid-X-receptor (FXR) signaling pathway - cell viability counter screen (AID 743218); conditions: FXR-bla HEK293T viability, CellTiter-Glo luminescence, 16 h; viability change, negative = cytotoxic: at 62.6 µM (top of the series) unless noted; also: nearly all actives have a fitted effect of over 45% in size; also: potency is read from the fitted curve at half-maximal effect
# Summary of the method: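 In GeneBLAzer FXR-UAS-bla HEK 293T cells, compounds act for 16 h at 37 C. Cell viability is then scored in the reporter wells by CellTiter-Glo, 30 min at RT, luminescence.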
# [12] = qHTS assay to identify small molecule agonists of the vitamin D receptor (VDR) signaling pathway - cell viability counter screen (AID 743224); also: potency is read from the fitted curve at half-maximal effect; nearly all actives have a fitted effect of over 50% in size
# Summary of the method: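 VDR-bla cell line, quantitative HTS format; 16 h compound incubation (37C, 5% CO2); ATP-based CellTiter-Glo luminescence measured in the reporter assay wells.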
# [13] = biological target: Bile acid receptor (Homo sapiens) (UniProt Q96RI1); test: qHTS assay to identify small molecule agonists of the farnesoid-X-receptor (FXR) signaling pathway (AID 743220; active = well fitted activation curve with a large enough effect in the signal ratio in the repeat runs, not every such curve was filed as active; inconclusive = weak or mixed curves, or effect the other way; the % refers to the signal ratio; also: potency is read from the fitted curve at half-maximal effect); conditions: HEK293T FXR-UAS-bla, beta-lactamase FRET ratio, 16 h; activation: at 62.6 µM (top of the series) unless noted
# Summary of the method: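 Beta-lactamase reporter under UAS control in GeneBLAzer FXR HEK 293T cells (5000/well) measured with LiveBLAzer FRET substrate after 2 h at room temperature. Compound exposure lasted 16 h at 37C.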
# [14] = activation: at 73.3 µM (top of the series) unless noted
# [15] = activity change, negative = inhibition: at 61 µM (top of the series) unless noted
# Tags tell the direction and shape of the fitted curve or compound fluorescence and quenching.
smiles,measurement,setting,value
CNC(C)Cc1ccccc1OC (stereo not drawn),Potency,[1],inactive
CCCCCCCCC(=O)NCc1ccc(O)c(OC)c1,Potency,[1],"inconclusive: 61.6 µM [rising, partial curve, poor fit]"
c1ccc(N=Nc2ccccc2)cc1,"activity change, negative = inhibition",[2]; at 78.8 µM (top of the series),inactive: 0.155%
CN1C(=O)C(O)N=C(c2ccccc2)c2cc(Cl)ccc21 (stereo not drawn),Potency,[3]; [14],"inconclusive: 71 µM [rising, partial curve, poor fit]"
same,Potency,[4],"inconclusive: 1.14 µM [cytotoxic, single point]"
same,"ratio activity, negative = inhibition",[5],inconclusive: 12.5% [at 80.4 µM]
same,Potency,[6],inactive
same,Potency,[7],"inconclusive: 1.27 µM [rising, partial curve]"
CCOc1cc(Oc2ccc(C(F)(F)F)cc2Cl)ccc1[N+](=O)[O-],activation,[3]; at 73.3 µM (top of the series),inconclusive: 22.9%
same,activation,[3]; at 94.8 µM (top of the series),inconclusive: 40.5%
same,Potency,[8],inconclusive: 55.6 µM
same,Potency,[9],"inconclusive: 24.5 µM [rising, single point]"
same,Potency,[4],"inconclusive: 0.197 µM [cytotoxic, full curve, poor fit]"
same,Potency,[10],inconclusive: 55.6 µM [inhibitor]
same,Potency,[11],"inconclusive: 35.1 µM [rising, partial curve] and inconclusive: 5.49 µM [rising, partial curve]"
same,Potency,[7],"inconclusive: 49.5 µM [falling, partial curve, poor fit]"
COc1ccc(O)c(C(C)(C)C)c1,activation,[3]; [14],inconclusive: 19% and inconclusive: 18.6%
same,Potency,[8],inconclusive: 61.8 µM [single point]
same,Potency,[4],"inconclusive: 49.1 µM [cytotoxic, partial curve]"
same,Potency,[12],"inconclusive: 55.1 µM [cytotoxic, single point]"
same,"viability change, negative = cytotoxic",[6],inconclusive: -33% [cytotoxic]
same,Potency,[7],"inconclusive: 55.1 µM [falling, partial curve, poor fit]"
OCCCCO,activation,[3]; [14],inconclusive: -5.66%
same,activation,[3]; at 94.8 µM (top of the series),inactive: -0.476%
same,Potency,[8],inactive
same,Potency,[1],inactive
same,Potency,[2]; [15],inactive
same,Potency,[7],inactive
O=C1CN=C(c2ccccc2)c2cc(Cl)ccc2N1CC1CC1,Potency,[3]; [14],active: 32.2 µM
same,activation,[8],inconclusive: 6.78%
same,Potency,[10],"inconclusive: 57.7 µM [rising, partial curve, poor fit]"
same,"viability change, negative = cytotoxic",[11],inconclusive: 32.4%
same,Potency,[13],"inconclusive: 23 µM [activator, partial curve, poor fit]"
same,Potency,[7],inactive
O=[N+]([O-])c1cccc2cccnc12,Potency,[3]; [14],"inconclusive: 70.3 µM [rising, partial curve]"
same,Potency,[8],inactive
same,Potency,[11],"inconclusive: 71 nM [rising, partial curve, poor fit]"
same,Potency,[7],inactive
CC(C)(C)C(=O)C(Oc1ccc(Cl)cc1)n1cncn1 (stereo not drawn),Potency,[3]; [14],inactive
same,Potency,[9],inactive
same,Potency,[4],"inconclusive: 5.49 µM [cytotoxic, single point]"
same,"activity change, negative = inhibition",[2]; [15],inconclusive: 4.51%
same,Potency,[7],inactive
